Measurements from publication PMC12136788.
Some of the results follow.

B1: chr12:114680981:114681101:-|CDS|ENSG00000135111|unk|FALSE|unique (ssRNA)
RNA: GGGAGUUCUACAGUCCGACGAUCUAAAGUGAGAUGUUCUGGGCUGGAUAAAAAAGCCAAAUACAUUUUAUUGAUGGACAUUAUAGCUGCUGAUGACUGUCGUUAUAAAUUUCACAAUUCUCGGUGGAUGGUGGCUGGUAAGGCCAACAGAGGAUUGAGCAUCA
B2: chr10:116672031:116672132:-|3pUTR|ENSG00000165868|msi1|FALSE|unique (ssRNA)
RNA: GGGAGUUCUACAGUCCGACGAUCCCUUUCCUGCCUUGCAUUAAUGCUAUCUCCCUGUGUACUGUUUCUCUUAAAUGAGCAGAUAGAAAUCUGCAGUGUUGGCAGAUAGGUGAUGGAGAGGAUGAUAAUUUUAUCUUCUGGCCACAACAGAGGAUUGAGCAUCA
B3: chr10:122937732:122937852:-|CDS|ENSG00000119965|unk|total|mutant (ssRNA)
RNA: GGGAGUUCUACAGUCCGACGAUCGUAAGUGACAACUCAAAUAUACCCAACUCCGAGUUGCUGCCUUUUCUCCAGAAUUUAUGCCGUCAAGUUAAUCAUCUCCAUGUGGGAAAUAAGACCGAGUGUCAGGAAAACAUCACCAAGCAACAGAGGAUUGAGCAUCA
B4: chr2:200490383:200490484:-|CDS|ENSG00000155729|msi1|total|mutant (ssRNA)
RNA: GGGAGUUCUACAGUCCGACGAUCUCUCCAGCCAGUGCCAUCCAGACGUCGGCUGGGGCGACAGCAAACCGGUUUCAAAGUGGCCGCCGCAGAAAGGCAGCUCAGCGCUCUGCACCUUCCAGAGCCACGGCCCUGGUGGGCACGCAACAGAGGAUUGAGCAUCA
B5: chrX:24560996:24561098:-|3pUTR|ENSG00000102230|unk|total|mutant (ssRNA)
RNA: GGGAGUUCUACAGUCCGACGAUCACUCAAGACUUUUUACAGAGAACUGUGGGCUCAGUUAUGAUCUCAGCAUCUGAAUGGUCCCGGCCGUAUCACCAUUAUCUCUGGCCCCCGGUUUGCCAAGCCGGAUGAAGACUCUAAGUGCAACAGAGGAUUGAGCAUCA
B6: ENSG00000196628:stop:overlap|stop_codon|ENSG00000196628|stop_codon|NA|stop_codon (ssRNA)
RNA: GGGAGUUCUACAGUCCGACGAUCCAACCUCCACCUCCCAGGUUCAAGCUAUCCUCCUGCCUCAGCCUCCUGAGUACCCGGGAUAGGCGUUUGUGUGAUUUUGCUAAAAUGCAUCACCAACAGCGAAUGGCUGCCUUAGGGACGCAACAGAGGAUUGAGCAUCA

target: MSI1 full-length (mouse, UniProt Q61474 1-362); experiment: nsRBNS (natural sequence RNA bind-n-seq); RBNS binding buffer (assumed for nsRBNS): 25 mM Tris pH 7.5, 150 mM KCl, 3 mM MgCl2, 0.01% Triton X-100, 500 ug/ml BSA, 20 U/ml SUPERase-In, 4 C; UNK is unkempt and MSI1 is Musashi-1; names of the RNAs are library labels; protein concentration not given here; high values mean tight binding
Sequence of UniProt Q61474 (Q61474 whole entry): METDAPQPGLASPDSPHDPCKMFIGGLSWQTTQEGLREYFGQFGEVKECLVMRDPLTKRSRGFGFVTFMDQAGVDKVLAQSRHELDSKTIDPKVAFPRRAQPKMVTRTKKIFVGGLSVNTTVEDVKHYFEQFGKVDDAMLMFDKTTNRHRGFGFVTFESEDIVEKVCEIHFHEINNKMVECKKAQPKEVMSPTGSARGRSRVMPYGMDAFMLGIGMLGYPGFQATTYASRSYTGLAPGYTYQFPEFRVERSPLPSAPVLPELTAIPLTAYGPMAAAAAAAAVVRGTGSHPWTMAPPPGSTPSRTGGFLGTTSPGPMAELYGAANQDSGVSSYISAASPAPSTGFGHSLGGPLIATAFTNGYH

| Binder | binding signal [enrichment R] |
| --- | --- |
| B1 | 0.395 |
| B2 | 0.275 |
| B3 | 0.448 |
| B4 | 0.334 |
| B5 | 0.37 |
| B6 | 0.277 |
